PubChem BioAssay AID1240 (Sanford-Burnham Center for Chemical Genomics, 2008)
The whole screen tested about 50,000 compounds, of which about 800 (1.6%) showed an effect of 50% or more. The list shows a part of the results.

Biological target: Bcl-2-like protein 10 (Homo sapiens) (UniProt Q9HD36)
Assay: TR3 peptide-Bcl-B binding displacers, biochemical primary FP assay, phenotype converters (AID 1240);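 further: 0% = Bcl-B with tracer peptide and DMSO and 100% = tracer peptide lacking Bcl-B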
Settings: GST-Bcl-B / FITC-TR3 peptide fluorescence polarization; stronger effect = higher value; compound at 3.75 mg/L

Sequence of UniProt Q9HD36 (Q9HD36 whole entry, looked up): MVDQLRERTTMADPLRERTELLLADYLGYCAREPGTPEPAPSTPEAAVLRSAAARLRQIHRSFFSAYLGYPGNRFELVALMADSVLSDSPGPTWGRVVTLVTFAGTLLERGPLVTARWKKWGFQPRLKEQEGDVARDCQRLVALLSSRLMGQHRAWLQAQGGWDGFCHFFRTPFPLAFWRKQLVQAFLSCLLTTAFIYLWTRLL

| Structure (SMILES) | displacement [%] |
| --- | --- |
| O=C(NCCC(c1ccccc1)c1ccccc1)C(F)(F)F | -1.5 |
| O=[N+]([O-])c1cccc(Nc2ccccc2)c1 | -1.5 |
| CC(C)c1ccc(NC(=O)CC2SC(N)=NC2=O)cc1 (stereo not drawn) | 8.7 |
| CC(C)(C)C(=O)Nc1ccc(N2CCOCC2)cc1 | 5.2 |
| COc1cc(NC(=O)c2cccc(Br)c2)cc(OC)c1 | -1.6 |
| C/C(O)=C/C(N)=NC(=O)c1ccccc1 | 18.2 |
| COC(=O)CP(=O)(c1ccccc1)c1ccccc1 | 1.6 |
| COC(C)(C)c1cc(-c2cccc3ccccc23)nc(N)n1 | 0 |
| COc1ccc(Cl)cc1C(=O)Nc1cccc(F)c1 | -4.4 |
| Cc1ccc([N+](=O)[O-])cc1S(=O)(=O)N1CCOCC1 | 5.1 |
| O=C(Nc1ccccc1)N1CCN(c2ccccc2)CC1 | -1.6 |
| CCOc1ccc(NC(=O)C2COc3ccccc3O2)cc1 (stereo not drawn) | 4 |
| O=C1/C(=C\Nc2cc(Cl)ccc2O)CCc2ccccc21 | 85.9 |
| Cc1ccccc1NC(=S)NC(=O)/C=C/c1ccc(F)cc1 | -5 |
| O=C(NCCCO)C(=O)NCCc1ccccc1 | 15.5 |
| COc1ccc(Cl)cc1NC(=O)c1ccc(Cl)c(Cl)c1 | -3.3 |
| Cc1ccc([N+](=O)[O-])cc1NC(=S)NC(=O)c1ccccc1Cl | 15.9 |
| CC1(C)CC(=O)c2sc(NC(=O)c3ccc(C(=O)c4ccccc4)cc3)nc2C1 | -20.5 |
| Cc1cccc(C(=O)Nc2cccc(C(N)=O)c2)c1 | -11.6 |
| CC(=O)Nc1ccccc1NC(=O)COc1ccc2ccccc2c1 | -9.4 |
| CCNc1ncnc2c1oc1ccccc12 | 5.3 |
| Cc1cccc(C=Nc2ccc3c(c2)oc2ccccc23)c1O | -0.6 |
| Cc1ccc(S(=O)(=O)N(Cc2ccccc2)c2ccccc2C(=O)NC2CCCC2)cc1 | -0.9 |

| Structure (SMILES) | displacement [%] |
| --- | --- |
| Cc1ccc(NC(=O)c2cc3ccccc3o2)c([N+](=O)[O-])c1 | 4.1 |
| O=C(N(c1ccc(Cl)cc1)C1C=CS(=O)(=O)C1)C(F)(F)F (stereo not drawn) | 12.8 |
| Cc1ccc(-n2[nH]c(C)c(C=O)c2=O)cc1 | 16.7 |
| CCCC(=O)Nc1nnc(COc2ccccc2)s1 | 3.9 |
| Cn1c(-c2ccc(S(=O)(=O)O)s2)nc2ccccc21 | 5.7 |
| O=C(O)CCC(NC(=O)c1cncc(Br)c1)C(=O)O (stereo not drawn) | 1.8 |
| NC(=O)COc1ccc(/C=C2\C(=O)NC(=O)N(Cc3ccccc3)C2=O)cc1 | 23.2 |
| CS(=O)(=O)N(CC(=O)N1CCCC1)c1ccc(Cl)cc1 | 10.2 |
| COC(=O)C1=CN(CCc2ccccc2)C=C(C(=O)OC)C1c1ccc2c(c1)OCO2 | 3.5 |
| Cc1ccnc(NS(=O)(=O)c2ccc(N)cc2)c1 | -8.1 |
| Cc1cccc(C(=O)Nc2cccc(NC(=O)COc3ccccc3Cl)c2)c1 | 10.7 |
| COc1ccc(Oc2coc3cc(OC(=O)c4ccco4)ccc3c2=O)cc1 | 15.5 |
| N/C(=N\OC(=O)c1ccc(F)cc1)c1ccccc1 | -11.3 |
| O=C1/C(=C\c2ccco2)CC2CC1C/C(=C/c1ccco1)C2=O | 9.5 |
| Cc1nnc(Nc2ccc(C(=O)Nc3c(Cl)cccc3Cl)cc2)c2ccccc12 | -3.9 |
| CS(=O)(=O)NCCCNc1ccc(C(F)(F)F)cc1[N+](=O)[O-] | -0.8 |
| O=C(Nc1cc(C(F)(F)F)ccc1N1CCOCC1)Nc1cccc2ccccc12 | 3.4 |
| COc1cc(/C=N/NC(=O)c2ccncc2)ccc1OC(=O)c1cccs1 | -2.4 |
| O=C(Nc1ccc(O)c(-c2nc3ccccc3s2)c1)c1cc([N+](=O)[O-])ccc1Cl | 1.6 |
| Fc1c(F)c(N2CCOCC2)c(F)c(F)c1-c1c(F)c(F)c(N2CCOCC2)c(F)c1F | -2.3 |
| CC(O)c1nc2ccccc2n1Cc1ccc2ccccc2c1 (stereo not drawn) | -6.3 |
| COc1ccc(OC)c(NC(=O)C2CC(C)=C(C)CC2C(=O)O)c1 (stereo not drawn) | 18.1 |
| O=C(N/N=C/c1ccccc1)c1cc(Br)ccc1O | 7.4 |

| Structure (SMILES) | displacement [%] |
| --- | --- |
| COC(=O)c1ccc(NC(=S)NC(=O)/C=C/c2ccc(Br)cc2)cc1 | 13.2 |
| NC(=O)c1ccccc1N=Cc1cccc([N+](=O)[O-])c1 | -4.7 |
| Cc1ccccc1C1Nc2ccccc2NC2=C1C(=O)CC(c1ccccc1)C2 (stereo not drawn) | -7.1 |
| CC(=O)Nc1ccc2oc(-c3ccc4nc(NC(C)=O)sc4c3)nc2c1 | -4.1 |
| O=C(N/N=C\c1ccc([N+](=O)[O-])o1)c1nc(-c2ccccc2)cc(-c2ccccc2)n1 | 5.8 |
| CCOC(=O)c1c(-c2ccccc2)oc2cc(Br)c(OCC(N)=O)cc12 | 3.3 |
| O=C(NN1C(=O)C2C(C1=O)C1C=CC2C12CC2)c1ccncc1 (stereo not drawn) | 16.7 |
| CCCn1c(C(O)c2ccc(C)cc2)nc2ccccc21 (stereo not drawn) | -9.6 |
| O=C(NC(=S)N1CCCCC1)c1ccc(Br)cc1 | -3.1 |
| Cc1cc(-c2ccc(/C=C3\Sc4ccccc4C3=O)o2)cc([N+](=O)[O-])c1C | -32.2 |
| O=C(Cc1ccccc1Cl)c1ccc(O)cc1O | -6.4 |
| O=C1/C(=C/c2ccc(Br)o2)Sc2ccccc21 | 92.7 |
| COc1cccc(C2CC(=O)Nc3c2cc(Br)c2ccccc32)c1OC (stereo not drawn) | -3.9 |
| O=C(Nc1cccc2nsnc12)c1cccc(Br)c1 | 5.6 |
| O=C1/C(=C\c2cccc(Br)c2)SC(=S)N1CN1CCCCC1 | 10.3 |
| CC(C)CC(=O)N1c2ccccc2NC2=C(C(=O)CC(C)(C)C2)C1c1ccco1 (stereo not drawn) | -11.9 |
| O=C1C(=O)N(c2cccnc2)C(c2ccc(O)cc2)/C1=C(\O)c1ccc(Cl)cc1 (stereo not drawn) | -14.2 |
| CCOC(=O)C1=C(C)NC(=S)NC1c1cc(OC)c(OC)c(OC)c1 (stereo not drawn) | -5 |
| O=C(N/N=C/c1ccc(/C=N/NC(=O)c2cccc(Cl)c2)cc1)c1cccc(Cl)c1 | -6.5 |
| Cc1cccc(C)c1OCCOCCN1CCCC1 | 2.8 |
| CCC(C)(C)C1CCc2c(sc(NC(=O)c3cccnc3)c2C(N)=O)C1 (stereo not drawn) | -2.3 |
| O=C(Nc1ccccc1)Nc1nnc(-c2ccccc2I)s1 | 3.4 |
| Cc1ccc(C)c(S(=O)(=O)Nc2cc(Br)c(O)c3ccccc23)c1 | 19.6 |

| Structure (SMILES) | displacement [%] |
| --- | --- |
| CCC(C)NC(=O)NS(=O)(=O)c1ccccc1Cl (stereo not drawn) | 16.9 |
| O=C(Nc1ccccc1Cl)c1ccc(-n2cnnn2)cc1 | -5.7 |
| O=C(N/N=C/c1c(O)ccc2ccccc12)c1cc(-c2cccs2)[nH]n1 | -27.4 |
| Cc1cc(OCC(=O)Nc2cccc(I)c2)ccc1Br | -2 |
| O=C1c2ccccc2C(=O)C1(Nc1ccccc1)c1ccc([N+](=O)[O-])cc1 | 9.8 |
| O=C1/C(=C/c2cccs2)SC(=S)N1c1ccc(F)cc1 | 12.8 |
| O=C(O)CCCN1C(=O)/C(=C/C=C/c2ccccc2)SC1=S | 0.2 |
| CCOc1ccccc1NC(=O)c1c(-c2c(Cl)cccc2Cl)noc1C | 2.8 |
| CCC(=O)Nc1sc2c(c1C(=O)Nc1cccc3ccccc13)CCC(C)C2 (stereo not drawn) | 7.8 |
| COC(=O)C1=C(C)N(C)C(C)=C(C(=O)OC)C1c1cc([N+](=O)[O-])ccc1Cl | -5.8 |
| Fc1ccc(NC(=S)N2CCN(c3ncccn3)CC2)cc1 | -5.8 |
| O=c1c(-c2ccccc2)c(C(F)(F)F)oc2cc(O)ccc12 | -3.9 |
| CCOc1ccc(NC(=O)CSc2nnc(-c3ccc(OC)cc3)o2)cc1 | 9.8 |
| Cc1cc(C)c2nc3s/c(=C\c4ccc(Br)cc4)c(=O)n3c2c1 | 0 |
| CC1CCC(=C(C#N)c2nc(-c3cc4ccccc4oc3=O)cs2)CC1 (stereo not drawn) | 42 |
| COC(=O)C1=CN(Cc2ccc(C)cc2)C=C(C(=O)OC)C1c1cc(OC)c(OC)c(OC)c1 | 4.7 |
| COc1ccc(CN2CCN(C(=O)c3ccc(-c4ccccc4)cc3)CC2)c(OC)c1OC | -3.2 |
| CCOc1ccc(NC(=S)NC(=O)/C=C/c2ccc(C)cc2)c([N+](=O)[O-])c1 | 6.3 |
| CCc1ccccc1NC(=O)CN(c1ccc(Br)cc1)S(C)(=O)=O | -7 |
| COc1ccc(-c2nc3ccccc3c(=O)o2)c(OC)c1 | 2.2 |
| COc1cc(C(=S)N2CCOCC2)cc(OC)c1OC(=O)c1ccc(Br)cc1 | 12.3 |
| CCCCNc1c(C)c(O)cc2cc(OC)c(OC)cc12 | 5.9 |
| O=C(Nc1nnc(CSCc2ccccc2)s1)c1cccc2ccccc12 | 10.8 |

| Structure (SMILES) | displacement [%] |
| --- | --- |
| CCOC(=O)C1=C(C)NC(=S)NC1c1cc(C(C)C)c(OC)cc1C (stereo not drawn) | -1.3 |
| O=C(/C=C/c1cc2c(cc1Br)OCCO2)c1c(-c2ccccc2)c2cc(Cl)ccc2[nH]c1=O | 11.6 |
| O=[N+]([O-])c1cccc(NS(=O)(=O)/C=C/c2ccccc2)c1 | 2.1 |
| CCCC(=O)Nc1ccc(N2CCOCC2)cc1 | 8.9 |
| O=c1/c(=C\c2ccccc2C(F)(F)F)sc2nc3ccccc3n12 | -11.4 |
| COc1ccc(C(=O)Nc2ccc(N3CCOCC3)cc2)cc1OC | 0.5 |
| C=CCN(CC=C)CN1C(=O)C(=O)c2cc(Br)ccc21 | 6.3 |
| CCOC(=O)c1c(NC(=O)c2cccc(F)c2)sc(C(=O)Nc2ccccc2OCC)c1C | 5.3 |
| COc1cccc2c1NC(c1cccc3ccccc13)C1CC=CC21 (stereo not drawn) | -1.9 |
| O=C(c1ccccc1)N1CCN(C2CC(=O)N(CCc3ccccc3)C2=O)CC1 (stereo not drawn) | 3.9 |
| Cc1ccc([N+](=O)[O-])cc1N1C(=O)C2C3C=CC(CC3)C2C1=O (stereo not drawn) | 5.4 |
| O=C(/C=C/c1ccccc1)N1CCN(c2ccccn2)CC1 | 11.9 |
| O=C1OC(c2ccccc2)=N/C1=C1\C=C(c2ccccc2)Oc2ccccc21 | -4.2 |
| COc1ccc(C2CC(=O)C3=C(C2)Nc2ccccc2NC3c2cc(F)ccc2F)cc1OC (stereo not drawn) | 0 |
| CCCC(C)NC(=O)c1c(Cl)cccc1Cl (stereo not drawn) | 4.5 |
| CN1C(=O)/C(=C2/SC(=S)N(CCC(=O)O)C2=O)c2cc(Br)ccc21 | 30.8 |
| CCc1ccccc1N(CC(=O)Nc1cccc(C(F)(F)F)c1)S(C)(=O)=O | 1.1 |
| CCCN(CCC)C(=O)c1ccccc1NC(=O)c1cccs1 | 5.6 |
| CC(=O)NN1C(=O)/C(=C/c2cccc(O)c2)SC1=S | 1.4 |
| C=CCN1C(=O)/C(=C/c2ccc(N(C)C)cc2)SC1=S | 0 |
| CC(=O)c1cccc(NS(=O)(=O)c2cc(Cl)ccc2Cl)c1 | -2 |
